Source: PMC4336329 (PLoS ONE, 2015)
The whole screen tested about 310,000 compounds, of which about 14,000 (4.5%) showed an effect of 50% or more. The effect is printed as a negative number. The list shows a part of the results.

Target: human ether-à-go-go-related gene (hERG) potassium channel (human, UniProt Q12809)
Experiment: primary screen, population patch clamp on CHO cells stably expressing hERG
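Further: peak tail current of the secondary pulse compared with the same well before compound.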

Sequence of human ether-à-go-go-related gene (hERG) potassium channel (Q12809 whole entry, looked up): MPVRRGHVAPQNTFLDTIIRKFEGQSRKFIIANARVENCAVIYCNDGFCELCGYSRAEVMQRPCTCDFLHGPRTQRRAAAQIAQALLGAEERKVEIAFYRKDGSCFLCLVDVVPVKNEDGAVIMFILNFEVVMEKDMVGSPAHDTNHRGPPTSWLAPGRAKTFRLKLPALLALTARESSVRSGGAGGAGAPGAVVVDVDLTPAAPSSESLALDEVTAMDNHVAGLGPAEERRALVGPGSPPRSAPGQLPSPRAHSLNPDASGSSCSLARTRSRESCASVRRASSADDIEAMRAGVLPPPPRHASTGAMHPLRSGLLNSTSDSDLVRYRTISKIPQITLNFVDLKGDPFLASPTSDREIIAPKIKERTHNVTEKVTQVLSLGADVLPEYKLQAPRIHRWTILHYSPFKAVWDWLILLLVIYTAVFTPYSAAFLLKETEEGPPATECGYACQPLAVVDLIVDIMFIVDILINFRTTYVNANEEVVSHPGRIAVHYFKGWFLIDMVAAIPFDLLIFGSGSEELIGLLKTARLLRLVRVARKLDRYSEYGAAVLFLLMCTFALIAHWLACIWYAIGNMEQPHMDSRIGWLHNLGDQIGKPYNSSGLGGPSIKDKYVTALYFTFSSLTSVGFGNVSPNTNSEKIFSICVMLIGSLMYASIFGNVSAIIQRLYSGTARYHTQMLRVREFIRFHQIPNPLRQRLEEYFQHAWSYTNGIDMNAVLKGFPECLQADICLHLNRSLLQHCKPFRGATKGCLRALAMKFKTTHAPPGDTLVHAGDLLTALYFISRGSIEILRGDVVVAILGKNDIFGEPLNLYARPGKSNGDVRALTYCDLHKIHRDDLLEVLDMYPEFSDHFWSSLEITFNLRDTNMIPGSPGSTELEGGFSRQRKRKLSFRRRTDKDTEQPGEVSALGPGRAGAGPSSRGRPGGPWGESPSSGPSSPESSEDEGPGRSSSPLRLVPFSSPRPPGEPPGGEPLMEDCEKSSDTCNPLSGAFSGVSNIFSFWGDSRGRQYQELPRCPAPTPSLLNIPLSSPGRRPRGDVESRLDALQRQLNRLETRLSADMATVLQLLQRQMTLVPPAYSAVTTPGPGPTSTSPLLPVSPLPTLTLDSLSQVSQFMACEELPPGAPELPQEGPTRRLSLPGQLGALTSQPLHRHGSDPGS

Row | Compound | hERG current change (%, negative = inhibition) at 10uM
1 | CSc1ccccc1C(=O)Nc1ncc(C)s1 | 10.2%
2 | COC(=O)c1sccc1S(=O)(=O)Nc1ccc(C)cc1 | 14%
3 | O=C(NCCC1=CCCCC1)C1CCN(S(=O)(=O)c2cccc3nonc23)CC1 | 0.293%
4 | CCCCNC(=O)Cc1cc(=O)[nH]c(=O)[nH]1 | 8.74%
5 | C=C(C)CNC(=O)CCc1nnc(C2(c3ccc(Cl)cc3)CCC2)o1 | -23.9%
6 | CCC(CC)C(=O)Nc1ccc(S(=O)(=O)Nc2nccs2)cc1 | 25.9%
7 | N#CCCN(C(=O)Nc1ccc(Cl)c(Cl)c1)c1ccccc1 | -0.506%
8 | Cc1cc2c(NC(=O)Nc3ccc(F)cc3)cccc2nn1 | 8.16%
9 | Nc1ccc(N2CCN(c3ccc(F)cc3)CC2)cc1 | 1.37%
10 | COc1ccccc1CNC(=O)C1CCC(CNc2c(N3CCC(C)CC3)c(=O)c2=O)CC1 (centres unmarked) | 6.99%
11 | CCCCN(CC)CCNC(=O)c1cc2c(-c3ccc(Cl)cc3)nn(C)c2s1 | -74.8%
12 | COc1ccc2ccccc2c1/C=N/N1C(=O)CSC1=S | 16.7%
13 | CCCCOc1ccc(/C=C(\C#N)C(=O)NC2CC2)cc1 | 1.55%
14 | Cc1cc(CNC(=O)[C@H]2C[C@@H]2[C@H](NP(=O)(c2ccccc2)c2ccccc2)c2ccccc2)nn1C | -0.941%
15 | Cc1ccc(C(=O)C2=C(O)C(=O)N(CCCN3CCOCC3)C23C(=O)N(C)c2ccccc23)o1 (centres unmarked) | 27.9%
16 | Cc1ccc(NC(=O)NCCN2CCCCC2)cc1Cl | -51.7%
17 | C=C(C)CSc1nnc(-c2cccc(Cl)c2)n1N | 14%
18 | COc1cc(NS(=O)(=O)c2ccc(NC(=O)COc3ccccc3Cl)cc2)nc(OC)n1 | -10.7%
19 | COc1cc2c(cc1OC)C(C(=O)NC(C)C)C1CCCCN1C2=O (centres unmarked) | 10.7%
20 | CCN(C(=O)Cc1c(C(=O)O)n(C)c2ccccc12)c1ccc(F)cc1 | 24.3%
21 | CC1(C)SC(=S)N(/N=C/c2ccccc2O)C1N(O)C(=O)Nc1ccccc1 (centres unmarked) | -5.55%
22 | COCCOC(=O)C1=C(C)NC2=C(C(=O)CC(C)(C)C2)C1c1cc2c(cc1Br)OCO2 (centres unmarked) | -1.29%

Row | Compound | hERG current change (%, negative = inhibition) at 10uM
23 | CC1=C(C#N)C(c2cn(-c3ccccc3)nc2-c2cccs2)C(C#N)=C(C)N1 | -3.82%
24 | S=C(NCC1CCCO1)NC12CC3CC(CC(C3)C1)C2 (centres unmarked) | 8.93%
25 | CCOC(=O)C1CCN(C(=O)Cn2cc(C(=O)C3CC3)c3ccccc32)CC1 | 6.16%
26 | Cc1cccc(NS(=O)(=O)c2ccc3c(c2)NC(=O)CO3)c1C | 3.88%
27 | COc1ccc(N2C(=O)CSC23CCC(C(C)(C)C)CC3)cc1 (centres unmarked) | -9.15%
28 | COCCn1c(SCC(=O)N2CCCC2)nnc1-c1ccoc1C | 5.15%
29 | Oc1ccc(C2N=C(c3ccccc3)NC(c3ccccc3)=N2)cc1 | -0.167%
30 | O=c1cc(CO)oc(C(Nc2ccccn2)c2ccc(C(F)(F)F)cc2)c1O (centres unmarked) | 7.19%
31 | C/C(=N\Nc1nncc2ccccc12)c1ccc(C(C)(C)C)cc1 | 18.9%
32 | O=C(NC1CC2CCC(C1)N2C(=O)NC1CCCCC1)NC12CC3CC(CC(C3)C1)C2 (centres unmarked) | 0.38%
33 | Cc1cc(-c2nnc(CCC(=O)N(C)Cc3ccsc3)o2)no1 | 15.1%
34 | O=C(Nc1cccc(S(=O)(=O)N2CCCCC2)c1)C1CC1 | -10.6%
35 | CCCCNC(=O)Cn1cnc2ccc(S(=O)(=O)N3CCC(C)CC3)cc2c1=O | 2.68%
36 | COC(=O)C1CCN(CC(=O)Nc2cc(Cl)ccc2OC)CC1 | -19%
37 | O=C(Cc1c(F)cccc1Cl)NNC(=O)c1ccncc1 | -4%
38 | CN(C)c1nnc(-c2ccc(Cl)cc2)o1 | 16.6%
39 | COc1cc(/C=N/N=C2/C(=O)Nc3ccccc32)ccc1O | 0.556%
40 | COCCOc1ccc(C(F)(F)F)cc1NC(=O)Cc1ccc(S(=O)(=O)N2CCOCC2)s1 | -45.6%
41 | COc1ccccc1-c1cc(C(F)(F)F)nc(N2CCOCC2)n1 | -5.03%
42 | CN(Cc1cnccn1)C(=O)CC1C(=O)NCCN1CC(c1ccccc1)c1ccccc1 (centres unmarked) | 12.2%
43 | O=c1[nH]ncc(N2CCCCC2)c1Cl | 6.3%
44 | CCOC(=O)c1cnc2cc3c(cn2c1=O)CCCC3 | -9.43%
